Measured values: publication PMC4199508
No constants are given. Whether binding was seen depends on the method and setting. In cells and extracts the contact can be indirect. Some results given as binding are weak or reduced against the parent protein; the word gives no strength. Where a sequence is shown, tags or fusion partners need not be part of it.

Columns and labels:
[1] = molecular target: T1, Tpz1-myc (full length Tpz1, Tpz1-FL, expressed in fission yeast) (Schizosaccharomyces pombe) (UniProt O14246); assay: co-IP; fission yeast cell extracts; lysis and wash buffer 50 mM Tris pH 8.0, 150 mM NaCl, 10% glycerol, 5 mM EDTA, 0.5% NP40; IP with anti-myc or anti-FLAG and Dynabeads Protein G, western blot; Tpz1-Pot1 also in ccq1Δ poz1Δ cells (anti-myc IP of Tpz1-myc)
T1 sequence: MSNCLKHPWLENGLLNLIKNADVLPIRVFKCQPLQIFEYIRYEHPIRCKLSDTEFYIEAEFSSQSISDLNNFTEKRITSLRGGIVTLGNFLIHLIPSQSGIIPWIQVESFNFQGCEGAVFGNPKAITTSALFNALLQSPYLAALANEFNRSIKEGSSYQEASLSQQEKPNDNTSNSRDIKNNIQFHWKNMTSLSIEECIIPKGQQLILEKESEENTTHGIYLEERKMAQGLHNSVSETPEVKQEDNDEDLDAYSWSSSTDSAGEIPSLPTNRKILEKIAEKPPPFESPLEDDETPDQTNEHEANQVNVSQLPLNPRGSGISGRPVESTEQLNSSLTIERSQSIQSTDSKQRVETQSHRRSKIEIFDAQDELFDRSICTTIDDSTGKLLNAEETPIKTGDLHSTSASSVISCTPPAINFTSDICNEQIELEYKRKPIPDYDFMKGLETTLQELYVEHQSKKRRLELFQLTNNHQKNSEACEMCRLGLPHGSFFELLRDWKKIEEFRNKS

[2] = molecular target: T2, Tpz1-Y439R,L445R (myc-tagged, expressed in fission yeast) (Schizosaccharomyces pombe) (UniProt O14246); assay: as above
T2 sequence: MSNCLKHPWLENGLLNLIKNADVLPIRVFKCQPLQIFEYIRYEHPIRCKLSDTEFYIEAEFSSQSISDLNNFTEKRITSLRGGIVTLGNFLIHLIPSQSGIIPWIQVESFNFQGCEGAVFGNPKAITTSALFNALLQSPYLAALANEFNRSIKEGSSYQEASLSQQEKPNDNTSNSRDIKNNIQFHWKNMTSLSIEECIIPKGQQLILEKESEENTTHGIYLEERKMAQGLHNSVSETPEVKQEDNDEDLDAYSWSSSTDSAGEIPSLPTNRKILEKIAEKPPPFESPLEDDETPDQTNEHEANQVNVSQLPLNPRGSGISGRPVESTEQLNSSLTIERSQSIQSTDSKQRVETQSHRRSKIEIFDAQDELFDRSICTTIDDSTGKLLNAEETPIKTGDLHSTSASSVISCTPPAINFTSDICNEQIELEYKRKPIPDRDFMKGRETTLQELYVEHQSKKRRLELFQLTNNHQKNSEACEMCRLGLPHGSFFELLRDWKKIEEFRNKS

B1: Pot1-FLAG (expressed in fission yeast) (protein, UniProt O13988 1-555)
chain: MGEDVIDSLQLNELLNAGEYKIGELTFQSIRSSQELQKKNTIVNLFGIVKDFTPSRQSLHGTKDWVTTVYLWDPTCDTSSIGLQIHLFSKQGNDLPVIKQVGQPLLLHQITLRSYRDRTQGLSKDQFRYALWPDFSSNSKDTLCPQPMPRLMKTGDKEEQFALLLNKIWDEQTNKHKNGELLSTSSARQNQTGLSYPSVSFSLLSQITPHQRCSFYAQVIKTWYSDKNFTLYVTDYTENELFFPMSPYTSSSRWRGPFGRFSIRCILWDEHDFYCRNYIKEGDYVVMKNVRTKIDHLGYLECILHGDSAKRYNMSIEKVDSEEPELNEIKSRKRLYVQNCQNGIEAVIEKLSQSQQSENPFIAHELKQTSVNEITAHVINEPASLKLTTISTILHAPLQNLLKPRKHRLRVQVVDFWPKSLTQFAVLSQPPSSYVWMFALLVRDVSNVTLPVIFFDSDAAELINSSKIQPCNLADHPQMTLQLKERLFLIWGNLEERIQHHISKGESPTLAAEDVETPWFDIYVKEYIPVIGNTKDHQSLTFLQKRWRGFGTKIV
**Q.** Which results are given for B1?
**A.** binding [1]: binds; binding [2]: binds
